# Read counts are not given, so values of variants with three or more changes are uncertain.
# B1: LINE1-full (parent)
# chain: UACGUAGGUGGUUUUCCCCUGAUAGUGCUAAGGGGGCCUGGAAGUUUGGACUGGGCAGAGCUCAACACAGCGUGGCAAAGUGGCUGUGGCUAGACUGCCUCUCUGGAUUCCUCGUCACUCAGCAGGGCAUCUCUGAGAGAAAUGCC
# Variants of: B1
# Test: self-cleavage, relative activity (ratio to wild type); higher = more cleavage; in vitro, sequencing; the parent is a self-cleaving ribozyme
row,Variant,self-cleavage
1,G32A U100C U119A,1.49
2,C38U U108C U119C,0.98
3,A42G A64G U132C U143A,0.29
4,G48A A77G A107G,1.67
5,C38U A94C U115A U132C A142U,0.01
6,U14G U62C U81C,0
7,U13C G40A A92G A107G A141G,0.05
8,G32A A67G U115A A121G,0.17
9,A24G A50G U109C,0
10,A65G U87A U100C,0.07
11,U1C U23C U47C A141G,0.81
12,A78G U130C A136G,2.07
13,A77G C90G U108C G114A,0.01
14,U23C U119C A124U A140G,2.76
15,A57G C84U U96C,0.3
16,U5C A57U U109C C113U,0
17,C19U U134C U143C,1.42
18,U29A A64U U119A,0.56
19,U5C U26G A77G C84U,0.3
20,U81A U102A A142G,1.74
21,A2G U20A U45C A136G U143C,1.36
22,A30G A43G U47A,1.04
23,U29C A67G U102C,0
24,U62A U81C A141G,0

row,Variant,self-cleavage
1,A77G U102C A124U,2.24
2,U87A G88C C95G U96A U130C A138U U143C,0.04
3,U23A A67G A141G,0.74
4,A6U U26A U109A A129U U130C,0.8
5,U62C G106A A121U U134G,0.03
6,A69G A77U A121G A141G,0.18
7,A124G U130C U132C A138G,1.23
8,G48A U85C U100C,0.23
9,U26A A50U C51A U91C,0.47
10,A31G A67U U102C A138U,0.18
11,U108C A138G A142G,1.84
12,U62C A79G U96C A140G,0
13,A64G U104A A124G A138G,0.41
14,A22U A42U U73C A138G,0.87
15,U62C U73A U87C,0
16,U20C A78G U143A,1.6
17,U9A U112A A140G,1.44
18,G33A U62C A64U U87A,0.05
19,A57U A59G C76U U134A,0.04
20,U12C U81C U104A,1.48
21,G32A A64U U115C,0.41
22,A31G U73A G86A G88C C110A A140U,0.05
23,U119A U132C A136G U143A,1.15
24,U12C G58U U73C,0.11

row,Variant,self-cleavage
1,U14C A57G U62C,0.04
2,A22G U45G G82A,0.89
3,A78U U109C G127A A142G,0.47
4,A2G C19A C99U,0.64
5,A24G A64G U96C,0.43
6,U47C A79G U87A A140G A141G,0.09
7,C3U A22G G82U,0.75
8,A2G A64U A94G U100C A129U,0.32
9,U13C U87C A121C,0.2
10,U9A U52A A57G A65G U143C,0
11,U1C U13C A57G U91C A107G,0
12,G27A A43C U46C G49U,1.8
13,U14C U45C A59G A140G,0
14,A67G A117U U134A,0.37
15,A43G U45C U108C,0
16,G72A A94G U104A,0.12
17,A43U U81C A121U U132C,1.89
18,A65G U73C A78G G88U,0
19,U52G A124U G126A A136G,1.75
20,C38A U73A A79G A142G,1.07
21,A6G U81A G97A U100A,0.22
22,U15C U104A A129C,1.51
23,U9C C19U A117G,1.51
24,U47A C56U U108C,0.13

row,Variant,self-cleavage
1,U1C U9C A78G,0.48
2,U9C C19U A67U A79C A136G,0.3
3,A22G U39C U46C,0.69
4,U14C G36U C37U U73C,1.36
5,U23C U73C A124G,2.19
6,A50G A79G U102C,0
7,A117G A121U G126A,1.55
8,C56U U100C A142G,0.66
9,A42G A79G U143C,1.44
10,U9C U20C U45C,1.08
11,A22G U26C U39A U45A G114U,1.05
12,U14C A24C G35A A57U G72A A94U,0.09
13,U20A U52C A78G,1.7
14,A24G A31G A67G U85G,0
15,A59G G88A A124G C146A,0.03
16,G35U U73A A138G,1.61
17,U12A A59G A64G,0.12
18,G25A U104G A129U U134A,1.67
19,G33A A50G G72C A78G C95A,0.01
20,U47A G80U C110U A138G A142G,1.96
21,A43U C110U U115A,1.26
22,A43G A59G A77G,0
23,U5A U14C A57U,0.22
24,U20A G25A U100C,0

row,Variant,self-cleavage
1,A31G U73A C98A,0.24
2,U9A A50U A64G,0.22
3,A2G U13C U85C U91A,0
4,A22G U45C A50G,2.45
5,A31U G40U U62C U104G,0.06
6,U14C A22G A77U A79G,0.88
7,G35A U39C A117U U119C,1.08
8,A77U U119C A121U,1.62
9,U109C A124G A129G,0.4
10,A94U A124G A142G,0.13
11,U15C U20C U29C U45A,0
12,U23A G35A U73A,1.02
13,G4C A124U U134A,0.92
14,G32U A42G G80A A107G U143A,1.07
15,C51A A92G A141G,0.06
16,U12C U100C A136U,1.64
17,C3U U15C U23C U45C U102C,0.92
18,U13C A59G A65G U109C,0
19,U47A U73G U109C,1.06
20,U14C G34U A57G,1.35
21,G34A U115A A129G,1.27
22,U52C U81A A140U,1.52
23,A57G A77U G86A A117U,0.04
24,C63G A64G A141G,0

row,Variant,self-cleavage
1,U47C U87A U100C,0.15
2,U39C G41A A69U,0.07
3,U13C U45A G127A U143C,0.8
4,U12A U47C G137U,2
5,U13A G21A A124U A129U,1.65
6,G35U U47C A121C,0.91
7,U12A U14C A107G C131U A138G,1.19
8,A50G A59G A142G,0
9,U29C U115C A138G,2.83
10,A2G U14C U62A U143A,0.31
11,A6G U62A U96A,0.16
12,A64G U104A U108C,0.32
13,U45A A64G A142G,0.16
14,A77U U81C U104C G106U,1.38
15,U14G A67G U81A,0.66
16,C61A G74A U85C,0.05
17,C37G A138G A141G,0.68
18,A64G U109C G126U,0.26
19,A2G U13A A64G,0.29
20,U14C C95U A142G,0.24
21,A42G G55A U85C A140G,0.09
22,A42G A64G A121G U143A,0
23,U12G G25A A42G U100C,0.56
24,U9C U15C A77U A78C,0.66

row,Variant,self-cleavage
1,U20C G53A A117G A142U,1.26
2,U52A A78G A121C,1.15
3,A2G A78G A140G,0.77
4,C56U U109C U115C A121G U134C,0
5,U45C U85C A141C,0.34
6,U26C U109A U119C,1.75
7,A64G A124U A141U,0.14
8,A2C A78G U81A,0.53
9,U23C A77G U87A U115C,0
10,A69G A107G U109A,0
11,A64U A65G A78G G105A U134C,0.01
12,U5C U100C A140G,0.97
13,A43G U45C U85G U102A,0
14,A24U A30G A78G A136G,0.71
15,A67G G114U A124G,0.3
16,U1C A117G A138G,0.77
17,U85C U96G U143C,0.12
18,U12C U26C G33U U62A,0
19,U62C A77U G97A,0.01
20,G40U U115C A129U A138U,1.58
21,A50G U115C A117C U143C,1.67
22,G41U G82A U130C A140G,2.17
23,U47G U85C U91C,0
